Cell count data for 30 molecules are collected here from the supplement of paper PMC4604168 (melanoma cell lines).

The list shows a part of the results. Many values rest on one well or one pass, so single values are uncertain.
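Also: cell number obtained by counting DAPI-stained nuclei in high-throughput microscope images with image analysis software, screen run in 1,536-well plates.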

The subject of the assay is WM1716. Kind of assay: cell count relative to DMSO control; melanoma cells; higher = more viable cells. The following applies: library dose: low library concentration; 72 h.
`O=C(O)[C@@H]1[O][Sb](=[O])([O][Sb]2(=[O])[O][C@H]([C@H](O)CO)[C@H](O)[C@H](C(=O)O)[O]2)[O][C@H]([C@H](O)CO)[C@@H]1O` (stereo not given in full) [stibogluconate] + CN(C)S(=O)(=O)c1ccc2c(c1)/C(=C/c1cc3c([nH]1)CCCC3)C(=O)N2 [SU6656] (first compound 2 µM, partner dose 0.4 µM) registered a cell count of 99.6%.

The molecule `O=C(O)c1ccc2c(c1)nc(Nc1cccc(Cl)c1)c1ccncc12` + C[C@]1(c2nc3c(C(N)=O)cccc3[nH]2)CCCN1 [Veliparib] (first compound 0.4 µM, partner dose 1.4 µM) gave a cell count of 43.4%.

The molecule `O=C(Nc1cc(C(F)(F)F)cc(C(F)(F)F)c1)c1cc(Cl)ccc1O` + NC(=O)c1ccc(N(C(N)=O)c2c(F)cccc2F)nc1-c1ccc(F)cc1F [VX702] (first compound 0.016 µM, partner dose 0.4 µM) had a cell count of 113%.

For `O=C(Nc1cc(C(F)(F)F)cc(C(F)(F)F)c1)c1cc(Cl)ccc1O` + Cn1cnc2c(F)c(Nc3ccc(Br)cc3Cl)c(C(=O)NOCCO)cc21 [selumetinib] (first compound 0.016 µM, partner dose 0.015 µM), the cell count was 122%.

Turning to `O=C(O)c1ccc2c(c1)nc(Nc1cccc(Cl)c1)c1ccncc12` + O=C1NC(=O)/C(=C/c2ccc(-c3ccc(F)cc3O)o2)S1 [AS252424] (first compound 0.4 µM, partner dose 1 µM), the cell count amounted to 83.1%.

In turn, `O=C(Nc1cc(C(F)(F)F)cc(C(F)(F)F)c1)c1cc(Cl)ccc1O` + O=C(O)[C@@H]1[O][Sb](=[O])([O][Sb]2(=[O])[O][C@H]([C@H](O)CO)[C@H](O)[C@H](C(=O)O)[O]2)[O][C@H]([C@H](O)CO)[C@@H]1O [stibogluconate] (first compound 0.016 µM, partner dose 2 µM) came in with a cell count of 99.4%.

As for `O=C(O)c1ccc2c(c1)nc(Nc1cccc(Cl)c1)c1ccncc12` + OCc1c[nH]c2ccccc12 [Indole-3-carbinol] (first compound 0.4 µM, partner dose 0.8 µM), the cell count was found to be 87.5%.

In turn, `O=C(Nc1cc(C(F)(F)F)cc(C(F)(F)F)c1)c1cc(Cl)ccc1O` + COc1cc2ncnc(Nc3ccc(Oc4ccccc4)cc3)c2cc1OC [SrcI1] (first compound 0.016 µM, partner dose 2 µM) gave a cell count of 116%.

On to `O=C(O)[C@@H]1[O][Sb](=[O])([O][Sb]2(=[O])[O][C@H]([C@H](O)CO)[C@H](O)[C@H](C(=O)O)[O]2)[O][C@H]([C@H](O)CO)[C@@H]1O` (stereo not given in full) [stibogluconate] + COc1cc(Nc2ncc(F)c(Nc3ccc4c(n3)NC(=O)C(C)(C)O4)n2)cc(OC)c1OC [Tamatinib] (first compound 2 µM, partner dose 0.4 µM), for which the cell count is 101%.

For the molecule `O=C(Nc1cc(C(F)(F)F)cc(C(F)(F)F)c1)c1cc(Cl)ccc1O` + CC1(C)CCC(c2ccc(Cl)cc2)=C(CN2CCN(c3ccc(C(=O)NS(=O)(=O)c4ccc(N[C@H](CCN5CCOCC5)CSc5ccccc5)c(S(=O)(=O)C(F)(F)F)c4)cc3)CC2)C1 [ABT263] (first compound 0.016 µM, partner dose 0.4 µM), the cell count was determined as 87.6%.

In turn, `O=C(Nc1cc(C(F)(F)F)cc(C(F)(F)F)c1)c1cc(Cl)ccc1O` + CC(C)CCN1c2nc(Nc3cc(F)c(O)c(F)c3)ncc2N(C)C(=O)C1C [BID1870] (first compound 0.016 µM, partner dose 0.2 µM) yielded a cell count of 73.1%.

In the case of `O=C(Nc1cc(C(F)(F)F)cc(C(F)(F)F)c1)c1cc(Cl)ccc1O` + O=C(Nc1cccc(Cl)c1)Nc1ncc(CCNc2ncnc3ccsc23)s1 [SNS314] (first compound 0.016 µM, partner dose 0.0008 µM), the cell count amounted to 106%.

The molecule `O=C(O)[C@@H]1[O][Sb](=[O])([O][Sb]2(=[O])[O][C@H]([C@H](O)CO)[C@H](O)[C@H](C(=O)O)[O]2)[O][C@H]([C@H](O)CO)[C@@H]1O` (stereo not given in full) [stibogluconate] + CCc1ccc(CCOc2ccc(CC3SC(=O)NC3=O)cc2)nc1 [pioglitazone] (first compound 2 µM, partner dose 2 µM) yielded a cell count of 99.2%.

`O=C(O)[C@@H]1[O][Sb](=[O])([O][Sb]2(=[O])[O][C@H]([C@H](O)CO)[C@H](O)[C@H](C(=O)O)[O]2)[O][C@H]([C@H](O)CO)[C@@H]1O` (stereo not given in full) [stibogluconate] + O=C(O)C(=O)Nc1sc2c(c1C(=O)O)CCNC2 [TCS401] (first compound 2 µM, partner dose 1.66667 µM) registered a cell count of 120%.

In turn, `O=C(Nc1cc(C(F)(F)F)cc(C(F)(F)F)c1)c1cc(Cl)ccc1O` + CS(=O)(=O)c1ccc(C(=O)Nc2ccc(Cl)c(-c3ccccn3)c2)c(Cl)c1 [vismodegib] (first compound 0.016 µM, partner dose 1 µM) displayed a cell count of 108%.

As for `O=C(Nc1cc(C(F)(F)F)cc(C(F)(F)F)c1)c1cc(Cl)ccc1O` + COc1ccc(Cl)c(Nc2nc3ccccc3nc2NS(=O)(=O)c2cccc(NC(=O)C(C)(C)N)c2)c1 [XL147] (first compound 0.016 µM, partner dose 0.8 µM), the cell count was 91.8%.

As for `O=C(O)c1ccc2c(c1)nc(Nc1cccc(Cl)c1)c1ccncc12` + Cn1nnc2c(C(N)=O)ncn2c1=O [temozolomide] (first compound 0.4 µM, partner dose 2 µM), the cell count came out at 85.9%.

As for `O=C(O)c1ccc2c(c1)nc(Nc1cccc(Cl)c1)c1ccncc12` + CC1(C)NC(=O)N(c2ccc([N+](=O)[O-])c(C(F)(F)F)c2)C1=O [nilutamide] (first compound 0.4 µM, partner dose 1 µM), the cell count amounted to 101%.

As for `O=C(O)c1ccc2c(c1)nc(Nc1cccc(Cl)c1)c1ccncc12` + Oc1nc(-c2ccc(C(F)(F)F)cc2)nc2c1CSCC2 [XAV939] (first compound 0.4 µM, partner dose 2 µM), the cell count turned out to be 56.9%.

`O=C(O)[C@@H]1[O][Sb](=[O])([O][Sb]2(=[O])[O][C@H]([C@H](O)CO)[C@H](O)[C@H](C(=O)O)[O]2)[O][C@H]([C@H](O)CO)[C@@H]1O` (stereo not given in full) [stibogluconate] + C#Cc1cccc(Nc2ncnc3cc(OCCOC)c(OCCOC)cc23)c1 [erlotinib] (first compound 2 µM, partner dose 0.8 µM) came in with a cell count of 108%.

As to `O=C(O)[C@@H]1[O][Sb](=[O])([O][Sb]2(=[O])[O][C@H]([C@H](O)CO)[C@H](O)[C@H](C(=O)O)[O]2)[O][C@H]([C@H](O)CO)[C@@H]1O` (stereo not given in full) [stibogluconate] + C[C@@H]1CCN(C(=O)CC#N)C[C@@H]1N(C)c1ncnc2[nH]ccc12 [CP690550] (first compound 2 µM, partner dose 1 µM), the cell count came out at 111%.

The molecule `O=C(O)[C@@H]1[O][Sb](=[O])([O][Sb]2(=[O])[O][C@H]([C@H](O)CO)[C@H](O)[C@H](C(=O)O)[O]2)[O][C@H]([C@H](O)CO)[C@@H]1O` (stereo not given in full) [stibogluconate] + OCc1c[nH]c2ccccc12 [Indole-3-carbinol] (first compound 2 µM, partner dose 0.8 µM) gave a cell count of 96.1%.

As for `O=C(Nc1cc(C(F)(F)F)cc(C(F)(F)F)c1)c1cc(Cl)ccc1O` + Clc1ccc(Nc2nnc(Cc3ccncc3)c3ccccc23)cc1 [vatalanib] (first compound 0.016 µM, partner dose 2 µM), the cell count was 100%.

Consider `O=C(Nc1cc(C(F)(F)F)cc(C(F)(F)F)c1)c1cc(Cl)ccc1O` + CN(NC(=O)CC(=O)NN(C)C(=S)c1ccccc1)C(=S)c1ccccc1 [STA4783] (first compound 0.016 µM, partner dose 0.006 µM), for which the cell count is 74.8%.

For `O=C(Nc1cc(C(F)(F)F)cc(C(F)(F)F)c1)c1cc(Cl)ccc1O` + COCC[n+]1c2c(n(Cc3cnccn3)c1C)C(=O)c1ccccc1C2=O [YM155] (first compound 0.016 µM, partner dose 0.0004 µM), the cell count came out at 112%.

`O=C(Nc1cc(C(F)(F)F)cc(C(F)(F)F)c1)c1cc(Cl)ccc1O` + O=C(O)c1ccc2c(c1)nc(Nc1cccc(Cl)c1)c1ccncc12 [CX4945] (first compound 0.016 µM, partner dose 0.4 µM) gave a cell count of 109%.

Molecule `O=C(Nc1cc(C(F)(F)F)cc(C(F)(F)F)c1)c1cc(Cl)ccc1O` + CCCCCCCCCCCCCCCCCCOP(=O)([O-])OC1CC[N+](C)(C)CC1 [Perifosine] (first compound 0.016 µM, partner dose 0.4 µM) displayed a cell count of 93.1%.

The molecule `O=C(O)c1ccc2c(c1)nc(Nc1cccc(Cl)c1)c1ccncc12` + NC(=O)Nc1cc(-c2cccc(F)c2)sc1C(=O)N[C@H]1CCCNC1 [AZD7762] (first compound 0.4 µM, partner dose 0.02 µM) showed a cell count of 84.1%.

The molecule `O=C(Nc1cc(C(F)(F)F)cc(C(F)(F)F)c1)c1cc(Cl)ccc1O` + C#Cc1cccc(Nc2ncnc3cc(OCCOC)c(OCCOC)cc23)c1 [erlotinib] (first compound 0.016 µM, partner dose 0.8 µM) had a cell count of 102%.

Turning to `O=C(O)[C@@H]1[O][Sb](=[O])([O][Sb]2(=[O])[O][C@H]([C@H](O)CO)[C@H](O)[C@H](C(=O)O)[O]2)[O][C@H]([C@H](O)CO)[C@@H]1O` (stereo not given in full) [stibogluconate] + Nc1nc(F)nc2c1ncn2[C@@H]1O[C@H](CO)[C@@H](O)[C@@H]1O [fludarabine] (first compound 2 µM, partner dose 0.2 µM), the cell count stood at 90%.
